From PubChem BioAssay AID1346428 (National Center for Advancing Translational Sciences (NCATS), 2018) come the findings set out here.

Where “and” joins values, the source holds several entries; their conditions need not be identical. Equal entries are not always repeated. The campaign covered roughly 48,000 compounds. About 1,200 (2.5%) were called active. About 2% were inconclusive and are not listed.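 The calls were made as follows: active = activation of at least 60% and not above a set upper limit (about 1 call in 100 departs from these limits); inconclusive = activation of 40% to 60%, or above that upper limit; inactive = activation under 40%.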 The list shows a part of the results.

For this assay, the target named is Probable G-protein coupled receptor 32 (Homo sapiens) (UniProt O75388). The assay can be described thus: qHTS for Agonists of Human Resolvin D1 Receptor DRV1. Also: 0% is about no effect. Conditions: CHO-K1 GPR32 beta-arrestin PathHunter luminescence, 90 min; at 76.9 µM; hits give high values; zero percent set by DMSO-only wells. The procedure, abridged: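 Readings come from a cell-based beta-arrestin complementation format: CHO-K1 GPR32 stable cells (2,500/well) treated 90 min with compounds, then beta-Gal substrate added for 1 h before chemiluminescence imaging.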
Sequence of UniProt O75388 (O75388 whole entry, looked up): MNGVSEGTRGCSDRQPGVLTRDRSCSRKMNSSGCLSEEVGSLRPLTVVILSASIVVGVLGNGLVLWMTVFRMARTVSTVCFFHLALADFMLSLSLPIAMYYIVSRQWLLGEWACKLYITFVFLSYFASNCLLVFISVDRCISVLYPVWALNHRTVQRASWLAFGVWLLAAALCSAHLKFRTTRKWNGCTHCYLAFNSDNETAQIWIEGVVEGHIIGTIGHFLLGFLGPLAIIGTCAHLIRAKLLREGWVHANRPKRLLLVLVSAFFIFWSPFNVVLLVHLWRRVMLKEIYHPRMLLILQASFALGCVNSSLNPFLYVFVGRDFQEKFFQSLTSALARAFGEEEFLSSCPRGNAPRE
A general note: Quantitative high-throughput screening tests each substance at several concentrations.
With `Cc1ccc2sc(N(Cc3cccnc3)C(=O)CCOc3ccccc3)nc2c1C`, the activation was inactive: -10.9%. The same measure for `COc1cc(C(=O)CC2(O)C(=O)N(Cc3ccccc3Cl)c3ccccc32)cc(OC)c1OC` (centres undefined): inactive: -18.7%; for `O=C(O)CCCCCCCC(=O)O`: inactive: 9.88% and inactive: 7.09%. The value for `Cc1c(C(=O)N(Cc2ccc(N(C)C)cc2)C2CCS(=O)(=O)C2)oc2ccccc12` (centres undefined) was inactive: -30.3%; that for `Cc1oc2c(c1C(=O)Nc1ccccc1Br)C1=NCCN1C=N2` was inactive: -7.22%; that for `Cc1c(Cl)cccc1NC(=O)NCc1c(-n2cccc2)sc2c1CCCC2` was inactive: -8.16%. The same measure for `Cc1ccc(N(Cc2cccs2)C(=O)Nc2cccc(Cl)c2)cc1`: inactive: -30.7%; for `Cc1ccc(Cn2c(=O)n(CC3CCC(C(=O)N4CCC(C)CC4)CC3)c(=O)c3sccc32)cc1` (centres undefined): inactive: 1.34%; for `Cc1ccc(CNC(=O)c2c(O)nc3ccccn3c2=O)cc1`: inactive: 12%. For `C=CC(N)CCC(=O)O` (centres undefined), the activation is inactive: -2.18%. The same measure for `O=C(NCCc1cccs1)c1ccc(Cn2c(SCc3ccccc3)nc3cccnc32)cc1`: inactive: -10.1%. `COc1cccc(CNC(=O)c2sc3nc4n(c(=O)c3c2C)CCC4)c1`: the activation was inactive: -8.66%. On to `CCOC(=O)c1ccccc1NC(=O)c1cc2c(s1)-c1c(C)cccc1OC2`, for which the activation was inactive: -12%. The value for `COc1ccc(N2CC3=C(C2=O)C(c2ccc(O)c(OC)c2)NC(=O)N3C)cc1` (centres undefined) was inactive: 13.7%; that for `CCOc1ccccc1NC(=O)Cn1cnc2c1c(=O)n(C)c(=O)n2C` was inactive: -18%; that for `CC(C)OCCCNc1sc(S(=O)(=O)c2ccccc2)nc1S(=O)(=O)c1ccc(Cl)cc1` was inactive: -16.4%.

In the case of `CCOc1ccccc1NC(=O)CSc1nc2c(oc3ccccc32)c(=O)n1C(C)C`, the activation was inactive: -8.22%. The value for `COCCCNC(=O)c1cc(-c2ccc(OC)cc2)nc2n[nH]c(-c3ccc(Cl)cc3)c12` was inactive: -26.4%. For the compound `COc1ccc(CCNC(=O)c2cnc3ccc(C)cn3c2=O)cc1OC`, the activation is inactive: -2.13%. Regarding `Cn1ncc2c(NCc3ccc(Cl)cc3)ncnc21`, the activation was inactive: 6.71%. The value for `Cc1c(C(=O)Nc2ccc(F)cc2F)oc2ccc3c(c12)C(=O)CC(C)(C)O3` was inactive: 44.3%; that for `CN(C)c1ccc(CNC(=O)CN2C(=O)c3cccnc3Oc3ccc(Cl)cc32)cc1` was inactive: -2.13%; that for `Cc1oc2ccc(O)c(CN3CCN(Cc4ccccc4)CC3)c2c1C(=O)Nc1ccccc1` was inactive: -0.237%. As for `Cc1nn(CC(=O)NCc2cccc(Br)c2)c(=O)c2c1sc1ccccc12`, the activation is inactive: -13%. The value for `O=S(=O)(NCCc1nnc2ccc(SCc3ccc(C(F)(F)F)cc3)nn12)c1ccccc1` was inactive: -15.7%; that for `Cc1cc(C)c(S(=O)(=O)NCCc2cc3cc(C)c(C)cc3[nH]c2=O)c(C)c1` was inactive: -6.74%.

Turning to `Cc1ccc(Nc2nc3ccc(C)cc3nc2-n2nc(C)cc2C)c(C)c1`, the activation is inactive: 6.24%. The same measure for `COc1cccc(C(c2sc3nc(-c4ccco4)nn3c2O)N2CCOCC2)c1` (centres undefined): inactive: 4.33%; for `COc1ccc(N(CC(=O)NCc2ccccc2Cl)S(=O)(=O)c2c(C)[nH]c(=O)[nH]c2=O)cc1`: inactive: -12.4%. The value for `O=C(C1COc2ccccc2O1)N1CCN(c2nc3c(F)cccc3s2)CC1` (centres undefined) was inactive: -11.6%. Take `NS(=O)(=O)c1cc(C2(O)NC(=O)c3ccccc32)ccc1Cl` (centres undefined): the activation is inactive: -14.1%.

Regarding `COCCNC(=O)C1CCC(CNS(=O)(=O)c2ccc3c(c2)CC(C)N3C(C)=O)CC1` (centres undefined), the activation is inactive: -10.5%. The same measure for `CC(C)C(=O)Nc1nnc(S(=O)(=O)N2CCCCCC2)s1`: inactive: 1.7%.

In the case of `COc1cc(C(CC(=O)Nc2ccc(Br)cn2)N2Cc3ccccc3C2=O)cc(OC)c1OC` (centres undefined), the activation was inactive: 18.1%. Regarding `Cc1c(C(=O)Nc2cccc(F)c2)oc2c1-c1nn(Cc3c(F)cccc3Cl)cc1CC2`, the activation is inactive: -19.9%. The value for `Cc1ccc2c(c1)N(C(=O)CCC(=O)Nc1ccc(F)cc1F)CC(C)O2` (centres undefined) was inactive: -24.2%.

In the case of `Cc1c(C(=O)Nc2cccc(C(F)(F)F)c2)oc2ccc(S(=O)(=O)N3CCC4(CC3)OCCO4)cc12`, the activation was inactive: 5.73%. The value for `CCN[C@H]1CN(CCCOC)S(=O)(=O)c2sc(S(N)(=O)=O)cc21` was inactive: -8.19%; that for `COc1ccc(NC(=O)CSc2c3c(nc4ccccc24)CCC3)cc1Cl` was inactive: 0.832%; that for `CC(C)(C)C(=O)Nc1nnc2n1CCS2` was inactive: 42%. On to `Cc1nn(S(=O)(=O)c2ccc(F)cc2)c(C)c1S(=O)(=O)N1CCCCC1`, for which the activation is inactive: -7.28%. The same measure for `CC(C)(C)c1ccc(C(=O)N2CCC(c3noc(-c4ccc(S(=O)(=O)N5CCCC5)cc4)n3)CC2)cc1`: inactive: -1.38%; for `Cc1ccccc1CNC(=O)CCc1cn(Cc2ccccc2C)c2ccccc12`: inactive: -27.9%; for `CCOc1ccc(NC(=O)c2ccc3c(c2)nnn3C2CCCC2)cc1`: inactive: 6.48%. The value for `CCN(CC)S(=O)(=O)c1ccc(NC(=O)c2ccc3c(=O)n4c(nc3c2)CCCCC4)cc1` was inactive: 36.7%. The same measure for `CCOc1ccccc1N(C)C(=O)c1cc(S(=O)(=O)NCCc2ccc(Cl)cc2)ccc1F`: inactive: -18.5%. Regarding `CCc1ccccc1NC(=O)CSc1nc(C)c(C(=O)Nc2ccccc2)c(-c2ccc(Cl)cc2)c1C#N`, the activation was inactive: -24.1%. The same measure for `O=C(Nc1ccc(-c2nc3ccccc3s2)c(O)c1)c1ccc(Br)cc1`: inactive: 14.5%; for `CCOC(=O)c1c(C)[nH]c(C)c1S(=O)(=O)N1CCC(C(=O)NCc2cccc(C)c2)CC1`: inactive: -1.54%.

With `Cc1ccc(NC(=O)C2CCN(S(=O)(=O)c3cccc4nonc34)CC2)c(Cl)c1`, the activation was inactive: 15.7%. The value for `Cc1cc(=O)c2c(O)c3c(O)cc(=O)c4c3c3c(cc(O)c1c23)C(C)(C)C=4O` was inactive: 11.6%; that for `CCOC(=O)C1=C(CS(=O)(=O)c2ccc(C(C)(C)C)cc2)NC(=O)NC1c1cccc(OC)c1` (centres undefined) was inactive: 15.9%. The value for `Cc1cccc(NC(=O)CSc2nnc3[nH]c(=O)cc(C)n23)c1C` was inactive: 4.46%; that for `COc1ccc(-c2cc3c(=O)n(CC(=O)Nc4ccc(Br)c(C)c4)ccn3n2)cc1OC` was inactive: -6.83%.

On to `COc1ccc(N2CCN(C(=O)c3cnc(SC)nc3C)CC2)cc1`, for which the activation was inactive: 13.5%.

With `O=C(CCn1c(=O)c2cccn2c2cccnc21)Nc1ccccc1Br`, the activation is inactive: -8.99%. The value for `O=C(CSCc1ccc(F)cc1)N1CCc2c([nH]c3ccccc23)C1c1ccc(F)cc1` (centres undefined) was inactive: -41%; that for `Cc1cc(S(=O)(=O)Nc2cc3c(cc2NCc2ccccc2)n(C)c(=O)n3C)ccc1F` was inactive: 27%. The value for `CCOC(=O)c1cc(-c2ccc(OC)cc2)n(CCC(=O)NCc2ccccc2OC)c1C` was inactive: -26.4%. In the case of `CCOc1ccc(NC(=O)CSc2ncn[nH]2)cc1`, the activation is inactive: -10.3%.

For `Cc1ccsc1CN(Cc1ccco1)C(=O)c1ccc(Cl)cc1`, the activation was inactive: 1.88%. The value for `Cc1ccc(C)c(N2CCN(S(=O)(=O)c3ccc(-c4cc(C(F)(F)F)on4)s3)CC2)c1` was inactive: 6.09%; that for `COc1cc(OC)c(N(C)C(=O)c2cn(C)c(=O)c3cc(OC)c(OC)cc23)cc1Cl` was inactive: 0.869%. The value for `O=C(Nc1nc2c(F)cc(F)cc2s1)c1ccc2c(c1)OCCO2` was inactive: 4.56%; that for `O=C(CN1C(=O)COc2ccc(S(=O)(=O)N3CCOCC3)cc21)Nc1ccc(F)c(Cl)c1` was inactive: -19.6%. The value for `O=C(Nc1nc2ccc(F)cc2s1)c1nc(SCc2ccccc2F)ncc1Cl` was inactive: -18.4%; that for `Cc1c(Cl)cccc1NC(=O)C1CCCN(C(=O)c2cnn(-c3ccccc3)c2-n2cccc2)C1` (centres undefined) was inactive: 2.99%; that for `CC(C)c1c(C(=O)Nc2ccccc2)c(-c2ccccc2)c(-c2ccc(F)cc2)n1CC[C@@H](O)C[C@@H](O)CC(=O)O` was inactive: -2.27%. On to `O=C(NCCc1ccc(Cl)cc1)C(=O)NCC(c1ccc2c(c1)OCO2)N1CCOCC1` (centres undefined), for which the activation was inactive: -18.9%.

For the compound `Cc1cc(C)c(S(=O)(=O)NCCc2sc(-c3cccnc3)nc2C)c(C)c1`, the activation is active: 68.7%. The same measure for `O=C(Nc1cc(C(F)(F)F)ccc1Cl)c1cc(-c2cccs2)nc2ccccc12`: inactive: 9.94%.

On to `Cn1c(=O)c2cc(C(=O)N3CCN(c4cccc(C(F)(F)F)c4)CC3)sc2c2ccccc21`, for which the activation is inactive: 2.51%. Take `Cc1cc(S(=O)(=O)Nc2cc3c(cc2Cl)n(C)c(=O)c(=O)n3C)ccc1F`: the activation was inactive: -1.07%. As for `Cc1cc(Cl)ccc1OCc1nc(-c2ccc(-n3cccc3)cc2)no1`, the activation was inactive: -9.47%. The value for `OC(Cn1cncn1)(Cn1cncn1)c1ccc(F)cc1F` was inactive: -7.24%. Regarding `CCCNC(=O)CCc1nnc2ccc(N3CCN(c4cccc(OC)c4)CC3)nn12`, the activation was inactive: -5.13%. The value for `CCCCN(C)CCNC(=O)c1c2c(nc3ccccc13)C(=O)N(C1CCCCC1)C2` was inactive: -10.9%; that for `CCCCOC(=O)c1ccc(NC(=O)c2cc3c(=O)n4cccc(C)c4nc3s2)cc1` was inactive: 6.16%.

`Cc1c(C(=O)NCC(c2ccc(Cl)cc2)N2CCOCC2)oc2ccccc12` (centres undefined): the activation was inactive: -25%. The value for `CCOc1ccc(N2CC(c3nc4ccccc4n3CCCOc3ccccc3)CC2=O)cc1` (centres undefined) was inactive: -14.4%; that for `CC(C)(C)OC(=O)N1CCC(c2c(C(=O)NCCN3CCc4ccccc4C3)cnn2-c2ccc(F)cc2F)CC1` was inactive: -41.8%.

As for `Cc1ccc(CN2CCC(CNC(=O)Nc3ccc(Cl)cc3)C2)cc1` (centres undefined), the activation is inactive: -7.97%.

As for `CCC(=O)N1CCc2cc(Br)cc(S(=O)(=O)CCC(=O)NCCc3cccc(C)c3)c21`, the activation was inactive: -19.4%. The same measure for `Cc1ccc(NC(=O)CCn2c(=O)c3cccn3c3ccccc32)cc1C`: inactive: -32%.
